Measurements published in PubChem BioAssay AID1508623 (National Center for Advancing Translational Sciences (NCATS), 2021).
Out of some 48,000 compounds screened, about 450 (0.94%) were called active. Roughly 19% stayed inconclusive and do not appear here. Calls come from the whole dose curve; as a rule, active = well fitted inhibition curve with a large enough effect; inconclusive = small, poorly fitted or top-dose-only effect; inactive = no such curve, though single readings can be large or run the other way. This is one part of the list.

Assay: Primary qHTS for Identification of Small Molecule Inhibitors of Huntingtin Promoter Activity; note: nearly all actives have a fitted effect of over 50% in size
Settings: HEK293 HTT promoter firefly luciferase reporter (activity 0% = vehicle and -100% = no light), 24 h; series mostly up to 57.5 µM; activity change, negative = inhibition: at the top concentration
In short: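 Quantitative HTS used concentration series of up to 57.5 uM final on HEK293 luciferase reporter cells, 24 h at 37 degrees C. Readout was Dual-Glo firefly luminescence.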

Activity change, negative = inhibition, inactive:
CC(C)(C)C(=O)NCC(c1ccc2c(c1)OCO2)N1CCOCC1 (configuration not stated) -5.21%
O=C(CSc1nnc(-c2cccs2)o1)Oc1ccccc1Cl -1.33%
COc1cccc(N2CCN(C(=O)c3cc4c(s3)-c3ccccc3OC4)CC2)c1 -22.6%
Cc1cccc(C)c1NC(=O)C(NS(=O)(=O)c1cccs1)c1ccccc1 (configuration not stated) -11%
O=C(Cn1ccn(-c2ccc(F)cc2)c(=O)c1=O)Nc1ccc(F)cc1 -6.43%
O=C(Cn1ncc2c3ccccc3n(Cc3cccc(Cl)c3)c2c1=O)Nc1ccc(F)cc1F -10.3%
Cc1cccc(NC(=O)N2CCN3CCCCC3C2)c1C (configuration not stated) -8.46%
COc1cc(NC(=O)CCS(=O)(=O)c2ccc3c(c2)n(C)c(=O)c(=O)n3C)cc(OC)c1 2.66%
COc1ccccc1N1CCN(c2csc3ccccc3c2=O)CC1 33.4%
Cc1cccc(C)c1Nc1c(-c2ccsc2)nc2cccc(C)n12 -37.1%
COc1cccc(NC(=O)Cn2c(-c3nonc3N)nc3ccccc32)c1 -18.9%
COC(=O)c1cc2oc3ccccc3c2n1Cc1ccccc1Cl -12.7%
CCOc1ccc(/C=C/c2nc(C#N)c(N3CCC(C)CC3)o2)cc1 -19.2%
COc1ccccc1CNC(=O)CCCCn1c(=O)c2ccccc2n(CC(=O)Nc2cccc(Cl)c2)c1=O -22.1%
CCc1ccc(Sc2cc(C(=O)NCCCN3CCC(C)CC3)c3ccccc3n2)cc1 -25%
COc1ccc(CNC(=O)C(=O)Nc2cccc(C)c2C)cc1 8.86%
O=c1c(-c2cc(-c3ccccc3)nc3c2COc2ccccc2-3)coc2ccc(Cl)cc12 -18.6%
CN1CCN(C2=Nc3ccccc3Sc3ccc(Cl)cc32)CC1 8.29%
CCc1ccc(NC(=O)C2CCCN(c3nnc(C)c4c(C)n(-c5ccccc5)nc34)C2)cc1 (configuration not stated) 2.13%
O=C(Nc1cc(Cl)ccc1Cl)c1cc(S(=O)(=O)N2CCc3ccccc3C2)ccc1F -16.9%
COc1ccc(OC)c(C(=O)CN2C(=O)N(c3ccc(C)cc3)S(=O)(=O)c3ccccc32)c1 -21.5%
O=C(Cn1c(-c2cccs2)cc2ccccc21)N1CCN(c2ccc(F)cc2)CC1 -30.1%
COC(=O)c1c(-c2cccs2)csc1NC(=O)c1ccc(C)cc1 43.1%
CCOc1ccc(CNC(=O)C2CCN(C(=O)N3CC(CC)Oc4ccc(C)cc43)CC2)cc1OC (configuration not stated) -23.9%
Cc1cc(NC(=O)c2cc(-c3ccc(Cl)c(Cl)c3)on2)n(-c2ccccc2)n1 -20.7% [at 11.5 µM]
CCOC(=O)CSc1nc2sc3c(c2c(=O)n1-c1ccc(OC)cc1)CC(C(C)C)OC3 (configuration not stated) -2.66%
COc1ccccc1NC(=O)Cn1c(=O)n(CC2CCC(C(=O)NCCc3ccccc3)CC2)c(=O)c2ccccc21 (configuration not stated) -9.26%
Cc1cc(Br)ccc1NC(=O)c1c(C)oc2ncnc(N3CCCCC3)c12 -6.79%
COc1cc2nccc(Oc3ccc(NC(=O)Nc4ccc(F)cc4F)c(F)c3)c2cc1OC -2.51%
CCN(CC)CCOC(=O)c1ccc(NC(=O)c2cc3cc(OC)ccc3oc2=O)cc1 -9.16%
COCCNC(=O)CN1C(=O)COc2ccc(S(=O)(=O)N3CCCC3)cc21 -14.6%
CCOC(=O)N1CCc2c(sc3c2C(=O)NC(c2ccc(C(=O)OC)cc2)N3)C1 (configuration not stated) -19.8%
Cc1nnc(SCC(=O)Nc2ccc(N(C)C)cc2)[nH]c1=O 8.26%
CCc1ccc(NC(=O)Cn2c(=O)n(CCCC(=O)NCCc3ccc(OC)c(OC)c3)c(=O)c3ccccc32)cc1 2.53%
Cc1ccccc1NC(=O)CCn1nc(-c2ccccc2)c2ccccc2c1=O -29.8%
CCOc1ccc(Sc2cc(C(=O)NCc3ccccc3Cl)c3ccccc3n2)cc1 -25.2%
Cc1c(Cl)cccc1-n1nc(C)c2c(C)cc(=O)n(CC(=O)N3CCCc4ccccc43)c21 -26.9%
CCCNC(=O)C1CCN(c2nc3ccc(C)cc3[nH]2)CC1 29.5%
Cc1ccc(CNC(=O)CCCN2C(=O)CCn3nc(-c4cccn4C)cc32)cc1 -1.75%
COc1ccc(-c2nc3ccccc3n3c(-c4ccc(OC)cc4)c4c(=O)n(C)c(=O)n(C)c4c23)cc1 11.3%
CCOC(=O)c1ccc2c(c1)N(Cc1ccc(F)cc1Cl)C(=O)c1ccccc1S2 -27.7%
Cc1cnc(=O)[nH]c1SCC(=O)Nc1cc(C(F)(F)F)ccc1Cl -0.422%
CCN1CCN(c2cc(C)c3cc(NC(=O)/C=C/c4ccc(C)cc4)ccc3n2)CC1 -9.23%
COc1cccc(NC(=O)N(Cc2cn(C)c3ccccc23)C2CCCCCC2)c1 -9.57%
Cc1cccc(C(=O)Nc2ccc(N3CCC(N4CCCCC4)CC3)c(C(=O)O)c2)c1 -7.99%
Cc1cccc(CN2CCN(CC(=O)Nc3c(C)cccc3C)S2(=O)=O)c1 -5.52%
NC1=NC(c2cc(F)cc(F)c2)n2c(nc3ccccc32)N1 (configuration not stated) -17.6%
Cc1ccc(Cl)cc1NC(=O)CC1Sc2ccccc2NC1=O (configuration not stated) 45.1%
Cc1ccc(CNC(=O)CCc2c(C)nc3c4c(C)cc(C)nc4nn3c2C)cc1 4.39%
NC(=O)CSc1oc(-c2cccs2)nc1S(=O)(=O)c1ccc(Br)cc1 -13.3%
COc1ccc(S(=O)(=O)N2CCN(c3ccccc3)CC2)cc1-c1noc(C)n1 -17.1%
COC(=O)c1ccc(NC(=O)N2CCN(c3nnc(C)c4c(C)n(-c5ccccc5)nc34)CC2)cc1 -21.6%
O=C(c1cnc2c(c1)COc1ccccc1-2)c1ccccc1O 13.4%
Cn1nc(-c2ccccc2F)c2cc(C(=O)Nc3cc(F)ccc3F)sc21 -15.9%
CC(C)c1cnc2c(c1SCC(=O)c1ccccc1)c(=O)n(C)c(=O)n2C -14.6%
O=C(NCc1ccccc1)c1ccc2c(c1)N(Cc1ccccc1)C(=O)c1ccccc1S2(=O)=O -14.9%
CCOC(=O)Cn1c(=O)n(C2CCCCC2)c2nc(-c3ccc(OC)cc3)nc(C(N)=O)c21 -7.29%
Nc1ccc(C(=O)Nc2ccccc2N)cc1 80.8%
Cc1cc(C)cc(NC(c2nnc(-c3cccc(F)c3)o2)c2ccc(F)cc2Cl)c1 (configuration not stated) -22.2%
Cn1c(=O)n(C)c2cc(CNCc3ccccc3)ccc21 -5.19%
Cc1ccc(CNS(=O)(=O)c2cc(Br)cc3c2N(C(=O)C2CC2)CC3)cc1 -9.27%
CCOc1ccc(C(=O)Nc2ccc(-c3nnc4n3CCCCC4)cc2)cc1OCC -9.06%
